Results: article PMC4336329 (PLoS ONE, 2015)
Screen size: about 310,000 compounds; about 14,000 (4.5%) showed an effect of 50% or more. The effect is printed as a negative number. The list shows a part of the results.

What follows are molecules tested against human ether-à-go-go-related gene (hERG) potassium channel (human, UniProt Q12809) (assay: primary screen, population patch clamp on CHO cells stably expressing hERG).
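Further: peak tail current of the secondary pulse compared with the same well before compound.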

human ether-à-go-go-related gene (hERG) potassium channel, sequence (Q12809 whole entry, looked up): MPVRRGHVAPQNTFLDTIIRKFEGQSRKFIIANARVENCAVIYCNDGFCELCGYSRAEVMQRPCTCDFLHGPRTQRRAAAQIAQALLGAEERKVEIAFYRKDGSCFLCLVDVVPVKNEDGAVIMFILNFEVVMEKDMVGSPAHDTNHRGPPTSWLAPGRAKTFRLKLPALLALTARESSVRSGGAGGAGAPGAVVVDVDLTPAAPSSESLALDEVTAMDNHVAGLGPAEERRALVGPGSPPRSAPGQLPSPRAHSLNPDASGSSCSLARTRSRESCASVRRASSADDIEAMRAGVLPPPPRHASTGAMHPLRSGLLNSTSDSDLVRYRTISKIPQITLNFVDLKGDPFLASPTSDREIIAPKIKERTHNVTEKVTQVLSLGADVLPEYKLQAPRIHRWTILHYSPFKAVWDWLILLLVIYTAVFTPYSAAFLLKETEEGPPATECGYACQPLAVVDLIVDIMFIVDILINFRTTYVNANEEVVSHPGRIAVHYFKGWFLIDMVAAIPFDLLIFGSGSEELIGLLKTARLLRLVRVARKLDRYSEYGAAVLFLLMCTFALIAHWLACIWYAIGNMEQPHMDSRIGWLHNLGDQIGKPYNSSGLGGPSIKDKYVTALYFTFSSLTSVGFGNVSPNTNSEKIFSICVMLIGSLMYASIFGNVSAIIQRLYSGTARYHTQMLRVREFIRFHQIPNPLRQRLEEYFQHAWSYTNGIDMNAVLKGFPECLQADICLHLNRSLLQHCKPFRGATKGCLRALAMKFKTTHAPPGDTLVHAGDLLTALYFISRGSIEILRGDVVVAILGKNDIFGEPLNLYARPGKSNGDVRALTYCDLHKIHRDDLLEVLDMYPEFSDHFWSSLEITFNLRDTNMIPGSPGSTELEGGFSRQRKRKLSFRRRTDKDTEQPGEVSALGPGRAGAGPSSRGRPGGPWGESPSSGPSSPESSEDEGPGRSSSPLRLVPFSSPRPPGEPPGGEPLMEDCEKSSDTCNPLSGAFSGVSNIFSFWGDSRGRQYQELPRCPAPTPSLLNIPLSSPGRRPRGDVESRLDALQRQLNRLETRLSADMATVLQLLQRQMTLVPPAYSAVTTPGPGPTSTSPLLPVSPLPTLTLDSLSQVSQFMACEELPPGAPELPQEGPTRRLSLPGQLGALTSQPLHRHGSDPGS

Row | SMILES | hERG current change (%, negative = inhibition) at 10uM
1 | CCc1ccc(S(=O)(=O)c2cn(C)c3cc(OC)c(OC)cc3c2=O)cc1 | 8.93%
2 | CCn1nc(C(=O)OCC(=O)N(CC(C)C)c2c(N)n(Cc3ccccc3)c(=O)[nH]c2=O)c2ccccc2c1=O | 10.3%
3 | COc1c(N2CCN[C@H](C)C2)c(F)cc2c(=O)c(C(=O)O)cn(C3CC3)c12 | 10.5%
4 | c1ccc(CNCc2ccc3c(c2)OCO3)nc1 | 11.2%
5 | COc1ccc(CC(=O)Nc2ccc(-c3noc(-c4cccc(OC)c4)n3)cc2)cc1 | -6.11%
6 | O=C(Nc1sc2c(c1C(=O)O)CCCC2)c1ccccc1Cl | 11.9%
7 | N#CNC(=Nc1cccc(F)c1)SCc1ccccc1F | -3.48%
8 | O=C(O)CSc1nc(-c2cccs2)cc(C(F)(F)F)n1 | 22.4%
9 | O=C(NCCC1=CCCCC1)C1CCC(CNc2nc(=S)[nH]c3ccccc23)CC1 (centres unmarked) | 20.2%
10 | COn1c(=O)c(-c2ccccc2)[n+]([O-])c2ccccc21 | 12.4%
11 | CCc1ccc(-n2cnc3cc(C(=O)NCC(OC)OC)ccc32)cc1 | -22.2%
12 | O=C(NCCOc1ccc(Cl)cc1)c1ccc2ccccc2n1 | 0.176%
13 | O=C(c1ccc(Br)cc1)N1CCCC1 | 4.8%
14 | S=C(NC1CCCCC1)N1CCOCCOCCN(C(=S)NC2CCCCC2)CCOCCOCC1 | -0.524%
15 | O=C(CN1CCN(Cc2ccccc2)CC1)N1CCN(c2ccccc2)CC1 | -13.4%
16 | OCC1(Cc2ccccc2)CCN(Cc2cc3ccccc3o2)CC1 | -51.7%
17 | COC(=O)C1=C(CS(=O)(=O)c2ccccc2)NC(=O)NC1c1ccc(OC)c(OC)c1 (centres unmarked) | 19%
18 | CCC1(c2ccccc2)NC(=O)N(CC(=O)N(CC(=O)Nc2ccccc2C(F)(F)F)Cc2ccco2)C1=O (centres unmarked) | -6.07%
19 | CCCNC(=O)CNC(=S)N(Cc1cc(OC)c(OC)c(OC)c1)C1CCCC1 | -3.77%

Row | SMILES | hERG current change (%, negative = inhibition) at 10uM
20 | O=C(/C=C/c1cccs1)NCc1cccnc1 | 3.25%
21 | COCCn1c(SCc2cccnc2)nnc1-c1c[nH]c2ccccc12 | -25.8%
22 | Cc1ccc(C)c(OCc2cc(C(=O)N3CC[C@@H]4CCCC[C@H]4C3)no2)c1 | 1.43%
23 | O=C(N/N=C/c1ccc(-c2ccccc2[N+](=O)[O-])o1)c1cncc(Br)c1 | -6.97%
24 | COc1ccc(C(=O)c2c(-c3cccc(C)c3)oc3ccc(N4CCOCC4)cc23)cn1 | 14.6%
25 | CC1CCCCC1NS(=O)(=O)c1ccc(S(=O)(=O)N2CCCC2)cc1 (centres unmarked) | -24%
26 | COc1cccc(CN2CC(C(=O)N(C)Cc3ccnc4ccccc34)CCC2=O)c1 (centres unmarked) | -10.2%
27 | COc1ccccc1OCCCCCCN1CCOCC1.O=C(O)C(=O)O | 0.0271%
28 | O=C(NCCC1=CCCCC1)c1ccc2c(c1)N(Cc1ccccc1)C(=O)CS2 | -12.2%
29 | Cc1cc(C(=O)N2CCCC(N3CCN(c4cccc(Cl)c4)CC3)C2)nc(C)n1 (centres unmarked) | -19.8%
30 | O=C(NN1C(=O)C2C3C=CC(O3)C2C1=O)c1cccc(Br)c1 (centres unmarked) | 20.5%
31 | COC(=O)n1c(SC)nc2ccccc21 | 10.9%
32 | Cl.NCCNC(=O)c1c(O)c2cccc3c2n(c1=O)CCC3 | 3.17%
33 | COc1ccc(-c2cc(C(=O)NC3CCCC3)no2)cc1OC | -10.2%
34 | O=C(CNC(=O)C1CCCCC1)Nc1cc(Cl)cc(Cl)c1 | 6.49%
35 | COc1ccc(Nc2nc(C(=O)N3CCc4ccccc4C3)cs2)cc1 | 7.03%
36 | CC(C)CNC1CCS(=O)(=O)C1.Cl (centres unmarked) | 9.26%
37 | COc1ccc([N+](=O)[O-])cc1NC(=O)COC(=O)c1ccc(O)cc1 | 13.1%
38 | Cc1cc(C)n(-c2ccc([N+](=O)[O-])cc2-c2nn[nH]n2)n1 | 9.88%

Row | SMILES | hERG current change (%, negative = inhibition) at 10uM
39 | CCN(CC)C(=O)CSC1=Nc2ccccc2C2=NC(c3ccccc3)C(=O)N12 (centres unmarked) | -46.4%
40 | Cc1c(N2C(=O)/C(=C\C3CC=CCC3)SC2=S)c(=O)n(-c2ccccc2)n1C (centres unmarked) | -6.68%
41 | CN(C)CCOC(c1ccc(Cl)cc1)c1ccccn1.O=C(O)/C=C/C(=O)O (centres unmarked) | -43%
42 | COc1ccc(C(=O)NC(=S)NCc2ccco2)cc1OC | -19.2%
43 | CCC1CCc2c(c3ccccc3[nH]c2=O)O1 (centres unmarked) | 1.25%
44 | CN(C)C=O.Oc1cccc2c(NC(=S)Nc3ccc(OC(F)F)cc3)cccc12 | -49.5%
45 | COc1ccc(CNC2CCCCC2)cc1 | -4.88%
46 | O=C(CSc1ccc(-c2ccccc2)nn1)N1CCCCC1 | 6.08%
47 | COC(=O)c1c(-c2ccc(OC)c(OC)c2)csc1N | 12.1%
48 | Cc1ccnc(NC(=O)c2ccc(NC(=O)CC3SC(N4CCCC4)=NC3=O)cc2)c1 (centres unmarked) | 3.47%
49 | COc1cc(/C=C2\CCc3ccccc3C2=O)cc(OC)c1OC | -11.2%
50 | Cc1cc(C)nc(SCC(=O)Nc2ccc(S(=O)(=O)N3CCCCC3)cc2)n1 | -61.3%
51 | O=C(NN=C1CCCC1)c1ccc([N+](=O)[O-])cc1 | 5.73%
52 | O=C(Cc1ccccc1)Nc1ccccc1C(=O)N1CCCCCC1 | -1.6%
53 | COCCOC(=O)c1[nH]c2c(c1C)C(=O)CC(c1ccc(F)cc1)C2 (centres unmarked) | 5.27%
54 | CC(C)(C)C(=O)Nc1ccc(C(=O)Nc2cccc(Oc3ccc(C(=O)O)c(C(=O)O)c3)c2)cc1 | 15.4%
55 | O=C(CNC(=O)c1ccc(Cl)cc1Cl)NCC(=O)Nc1ccccc1N1CCOCC1 | -27.6%
56 | CSc1nc(N)nc(SCC(=O)c2ccccc2)c1C#N | -1.73%
